# PubChem BioAssay AID504333 (National Center for Advancing Translational Sciences (NCATS), 2011)
# Out of some 360,000 compounds screened, about 16,000 (4.4%) were called active. The shares of active, inactive and inconclusive entries below differ from those in the screen. The call rests on the fitted dose curve; in most records, active means well fitted inhibition curve with a large enough effect; inconclusive means small, poorly fitted or top-dose-only effect; inactive means no such curve, though single readings can be large or run the other way. Where the call is inconclusive, the potency comes from a doubtful curve fit.
# Target: Bromodomain adjacent to zinc finger domain protein 2B (Homo sapiens) (UniProt Q9UIF8)
# Chain of UniProt Q9UIF8 (Q9UIF8 whole entry, looked up, the tested form may be a part): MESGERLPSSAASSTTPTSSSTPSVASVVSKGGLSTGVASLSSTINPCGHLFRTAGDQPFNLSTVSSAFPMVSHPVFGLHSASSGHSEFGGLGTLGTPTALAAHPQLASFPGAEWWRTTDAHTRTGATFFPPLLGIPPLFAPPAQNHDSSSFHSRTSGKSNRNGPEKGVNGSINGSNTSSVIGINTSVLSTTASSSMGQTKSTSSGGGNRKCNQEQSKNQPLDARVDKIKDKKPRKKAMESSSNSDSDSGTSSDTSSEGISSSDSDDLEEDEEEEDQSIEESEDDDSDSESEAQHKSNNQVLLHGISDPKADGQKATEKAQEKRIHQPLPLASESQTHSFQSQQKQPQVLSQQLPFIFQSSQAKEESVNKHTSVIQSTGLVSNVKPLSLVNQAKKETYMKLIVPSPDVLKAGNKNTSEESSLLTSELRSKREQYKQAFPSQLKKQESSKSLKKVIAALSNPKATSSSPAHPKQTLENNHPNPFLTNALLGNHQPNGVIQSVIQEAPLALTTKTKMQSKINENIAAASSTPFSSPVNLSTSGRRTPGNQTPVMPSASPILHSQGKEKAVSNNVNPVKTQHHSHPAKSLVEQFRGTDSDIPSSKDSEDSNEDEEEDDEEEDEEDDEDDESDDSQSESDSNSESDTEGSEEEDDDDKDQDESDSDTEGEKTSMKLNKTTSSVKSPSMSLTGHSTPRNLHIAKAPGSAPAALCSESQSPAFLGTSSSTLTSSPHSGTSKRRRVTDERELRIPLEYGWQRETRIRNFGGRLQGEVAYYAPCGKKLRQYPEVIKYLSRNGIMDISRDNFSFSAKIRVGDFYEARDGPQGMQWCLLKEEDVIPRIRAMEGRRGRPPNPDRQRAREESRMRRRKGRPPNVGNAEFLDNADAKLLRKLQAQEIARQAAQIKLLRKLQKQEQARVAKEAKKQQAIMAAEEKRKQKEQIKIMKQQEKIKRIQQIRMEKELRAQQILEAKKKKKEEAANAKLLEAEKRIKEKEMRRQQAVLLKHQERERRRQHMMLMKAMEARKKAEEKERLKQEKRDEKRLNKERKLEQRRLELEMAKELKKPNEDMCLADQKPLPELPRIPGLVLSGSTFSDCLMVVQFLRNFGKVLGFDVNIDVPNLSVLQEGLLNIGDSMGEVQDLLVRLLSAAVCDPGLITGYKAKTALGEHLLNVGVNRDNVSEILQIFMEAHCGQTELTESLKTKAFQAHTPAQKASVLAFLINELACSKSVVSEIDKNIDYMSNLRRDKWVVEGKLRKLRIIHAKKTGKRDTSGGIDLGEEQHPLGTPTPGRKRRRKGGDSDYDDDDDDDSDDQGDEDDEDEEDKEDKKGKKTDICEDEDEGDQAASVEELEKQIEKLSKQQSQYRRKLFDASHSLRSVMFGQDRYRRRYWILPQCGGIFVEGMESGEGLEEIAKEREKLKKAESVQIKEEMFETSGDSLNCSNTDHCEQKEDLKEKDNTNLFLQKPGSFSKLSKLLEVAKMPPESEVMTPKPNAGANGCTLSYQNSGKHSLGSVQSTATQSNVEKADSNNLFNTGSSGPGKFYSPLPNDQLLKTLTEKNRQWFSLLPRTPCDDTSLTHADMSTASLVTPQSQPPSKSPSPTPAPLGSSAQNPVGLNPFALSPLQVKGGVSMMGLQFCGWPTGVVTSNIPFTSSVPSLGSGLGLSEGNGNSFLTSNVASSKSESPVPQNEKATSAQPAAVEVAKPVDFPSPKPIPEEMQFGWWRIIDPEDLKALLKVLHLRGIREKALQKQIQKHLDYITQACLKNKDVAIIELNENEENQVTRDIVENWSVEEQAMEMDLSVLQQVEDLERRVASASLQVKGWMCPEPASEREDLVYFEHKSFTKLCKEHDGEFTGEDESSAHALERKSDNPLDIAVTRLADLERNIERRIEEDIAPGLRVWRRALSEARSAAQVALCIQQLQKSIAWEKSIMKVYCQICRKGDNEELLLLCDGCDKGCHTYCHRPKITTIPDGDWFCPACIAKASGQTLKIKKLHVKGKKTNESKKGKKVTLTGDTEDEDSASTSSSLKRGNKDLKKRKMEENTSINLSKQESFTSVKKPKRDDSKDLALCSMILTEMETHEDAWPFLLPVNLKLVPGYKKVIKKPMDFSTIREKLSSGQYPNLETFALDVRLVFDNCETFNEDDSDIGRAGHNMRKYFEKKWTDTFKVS
# Assay: qHTS Assay for Inhibitors of BAZ2B; further: nearly all actives have a fitted effect of over 60% in size
# Settings: AlphaScreen BAZ2B-H3K14Ac peptide displacement; activity change, negative = inhibition: at 114 µM (top of the series)
# Method in brief: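 AlphaScreen displacement: compounds (up to 110uM) incubated 30 min at room temperature with a preformed 50 nM BAZ2B/50 nM biotinylated H3K14Ac peptide complex in PBS pH 7.4 with Tween-20. Donor and acceptor beads at 10 ug/mL final added, 20 min light-protected before reading.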
# On the % scale 0 is the no-effect control and ±100 the full control effect; potency means the concentration at half of the fitted maximal effect; tags describe the fitted curve by direction and shape.
Compound,"activity change, negative = inhibition",Potency
CC(O)c1nc2cc([N+](=O)[O-])ccc2n1Cc1ccccc1 (stereo unspecified),inactive: -26.7%,
COc1ccc(-n2c(-c3ccc(F)cc3)cn3c4c(=O)n(C)c(=O)n(C)c4nc23)cc1,inactive: -15.2%,
CC(C)(C)NC(=S)N/N=C\c1ccc(-c2ccc([N+](=O)[O-])cc2)o1,,"inconclusive: 31.6 µM [inhibitor, full curve]"
Cc1ccc(C)c(N2CCN(CCCNC(=O)Cn3c(-c4cccs4)cc4ccccc43)CC2)c1,,active: 35.5 µM
Cc1ccc(C2N(c3nccs3)C(=O)C3CCCN32)cc1 (stereo unspecified),,"inconclusive: 89.1 µM [inhibitor, single point]"
O=C(CSc1nc(-c2ccco2)nc2cc(=O)[nH]n12)Nc1ccccc1Cl,inactive: -16.1%,
CCOC(=O)c1ccc(NC(=O)NCCc2cnc[nH]2)cc1,inactive: -10.5%,
O=C1c2ccccc2C(=O)c2[nH]c(=O)[nH]c21,inactive: -35.9%,
CC#CC#Cc1cccc(=O)o1,,"inconclusive: 89.1 µM [inhibitor, single point]"
COc1ccc(OC)c(/C=C2\SC(=S)N(NS(=O)(=O)c3ccccc3)C2=O)c1,,active: 39.8 µM
CSc1nnc([C@H](C)NC(=O)OC(C)(C)C)o1,inactive: 3.41%,
Cc1ccc(NC2SC(=O)N(CC(=O)O)C2=O)cc1 (stereo unspecified),,"inconclusive: 89.1 µM [inhibitor, single point]"
COc1ccc(CC(=O)NNC(=O)c2cccs2)cc1,inactive: 12.6%,
CCOC(=O)N1CCN(c2ncnc3c2cnn3-c2ccc(OC)cc2)CC1,,"inconclusive: 89.1 µM [inhibitor, single point]"
C[n+]1ccccc1Nc1cc([N+](=O)[O-])ccc1N,,"inconclusive: 89.1 µM [inhibitor, single point]"
COc1cc(OC)cc(C(=O)NC2CCSc3ccccc32)c1 (stereo unspecified),inactive: -12.6%,
Cc1ccc(C2c3cccn3CCN2S(=O)(=O)c2ccc([N+](=O)[O-])cc2)cc1 (stereo unspecified),,active: 7.08 µM
O=C1c2ccccc2C(=O)N1CC#CCN1CCN(C(c2ccccc2)c2ccccc2)CC1,,active: 50.1 µM
CCCCOc1cccc(C2/C(=C(\O)c3ccc4c(c3)OCCO4)C(=O)C(=O)N2CCN2CCOCC2)c1 (stereo unspecified),,"inconclusive: 89.1 µM [inhibitor, single point]"
COc1ccccc1N1CCN(C(=O)CCSCc2ccccc2F)CC1,,"inconclusive: 28.2 µM [inhibitor, full curve, poor fit]"
Cc1cc(C(=O)Nc2ccc3[nH]ccc3c2)no1,inactive: -4.55%,
Cc1oc(-c2ccccc2F)nc1Cn1c(SCc2ccccc2F)nc2ccncc21,,"inconclusive: 17.8 µM [inhibitor, full curve]"
Oc1ccc(C=Nc2ccc(N3CCOCC3)cc2)c(O)c1,,"inconclusive: 35.5 µM [inhibitor, partial curve]"
CC(=O)N1c2ccc(S(=O)(=O)NCCC(=O)NCc3ccc(N(C)C)cc3)cc2CC1C (stereo unspecified),,"inconclusive: 79.4 µM [inhibitor, single point]"
O=C1N=C(N2CCN(c3ccccc3)CC2)S/C1=C/c1ccco1,,active: 44.7 µM
COc1ccc2c(c1)[nH]c1c(=O)n(CCc3cnc[nH]3)cnc12,,"inconclusive: 89.1 µM [inhibitor, single point]"

Compound,"activity change, negative = inhibition",Potency
Cc1ccc(OCC(O)CN2CCN(Cc3ccc4c(c3)OCO4)CC2)cc1C (stereo unspecified),,"inconclusive: 100 µM [inhibitor, single point]"
COCCCn1c(=N)c(S(=O)(=O)c2ccccc2)cc2c(=O)n3cccc(C)c3nc21,inactive: -0.29%,
COc1ccccc1CNC(=O)c1ccc(-c2ccccc2C(F)(F)F)o1,inactive: -32.7%,
O=C(O)c1cc(N/N=C/c2ccc3c(c2)OCO3)ccc1Cl,,"inconclusive: 79.4 µM [inhibitor, partial curve]"
Cc1cccc(CN2CCN(CCCc3ccccc3)CC2)c1,,"inconclusive: 56.2 µM [inhibitor, partial curve, poor fit]"
COc1ccc(CN2C(=O)c3cccnc3C2O)cc1 (stereo unspecified),,active: 39.8 µM
COc1ccccc1N=Nc1c(C)[nH]n(-c2ccccc2)c1=O,,"inconclusive: 2.24 µM [inhibitor, full curve, poor fit]"
O=c1c(C=Nc2cccc(C(F)(F)F)c2)c[nH]n1-c1cccc(Cl)n1,,"inconclusive: 89.1 µM [inhibitor, single point]"
COc1cccc(C2c3[nH]c4ccccc4c3CCN2Cc2cnn(C)c2)c1 (stereo unspecified),,"inconclusive: 70.8 µM [inhibitor, partial curve]"
c1ccc(CSc2nnc(-c3ccco3)n2Cc2ccco2)cc1,,"inconclusive: 79.4 µM [inhibitor, single point]"
CC1=[N+](C)c2c(ccc3cccnc23)C1(C)C,,active: 39.8 µM
O=C(CN1C(=O)S/C(=C/c2cccnc2)C1=O)N1CCOCC1,inactive: 6.88%,
N#C/C(=C\c1ccc(-c2ccccc2[N+](=O)[O-])o1)C(=O)Nc1nc(-c2cccs2)cs1,,"inconclusive: 8.91 µM [inhibitor, full curve]"
CCCCNCCOCCOc1ccc(Cl)cc1Br,,active: 79.4 µM
COC(=O)C1=C(C)NC(=O)NC1c1ccc(-c2ccccc2Cl)o1 (stereo unspecified),inactive: 11.2%,
Cc1nnc(SCC(=O)Nc2ccccc2F)n1-c1ccc(F)cc1,inactive: -13.6%,
COC(=O)Cn1c(=NC(=O)c2cc(OC)c(OC)c(OC)c2)sc2cc(OC)ccc21,,"inconclusive: 89.1 µM [inhibitor, single point]"
O=C(/C=C/c1ccc([N+](=O)[O-])cc1)/C=C/c1ccco1,,active: 28.2 µM
CCOc1ccc(NS(=O)(=O)c2ccc(C(=O)NNC(=O)c3ccccc3O)cc2)cc1,inactive: 11%,
COc1ccc(/C=N/NC(=O)c2ccncc2)cc1OC,inactive: -1.73%,
Cc1cccc(OCc2cc(-c3ccccc3)no2)c1C,inactive: 208%,
OC(CN1CCC(Cc2ccccc2)CC1)C(F)(F)F (stereo unspecified),inactive: 2.16%,
COc1ccc(NC(=O)c2cc3c(CO)cnc(C)c3oc2=Nc2cc(OC)cc(OC)c2)cc1,,"inconclusive: 89.1 µM [inhibitor, single point]"
Cc1ccc(Sc2cnccc2C#N)cc1,inactive: -4.73%,
O=C(NCC1CCCO1)c1cccc(Oc2ccc([N+](=O)[O-])cc2Cl)c1 (stereo unspecified),,"inconclusive: 79.4 µM [inhibitor, single point]"
